# Results: article PMC6451091
# The list shows a part of the results. For part of these data: At the low end of the ranking the order means little. For part of these data: The protein was read in a cell extract, so binding may be indirect.
# How the values were obtained:
# Conditions in all cases: 20 mM HEPES pH 7.9, 100 mM NaCl, 1 mM DTT, 0.2 mg/mL BSA, 0.02% Triton X-100, 2% milk, 0.4 mg/mL salmon testes DNA; 1 h; temperature not stated; high values mean tight binding; double strand, one strand shown; sequences stand for … in GCCTAGCAC…GTGCTAGGTCTTGATTCGCTTGACGCTGCTG
# [1] = target: PU.1 (IVT) (UniProt P17947); test: protein-binding microarray (PBM)
# [2] = target: PU.1 (endogenous, THP-1 nuclear extract) (UniProt P17947); test: nuclear extract protein-binding microarray (nextPBM)
# [3] = target: T1, FLI1 (endogenous, THP-1 nuclear extract) (UniProt Q01543); test: as above
# T1 sequence: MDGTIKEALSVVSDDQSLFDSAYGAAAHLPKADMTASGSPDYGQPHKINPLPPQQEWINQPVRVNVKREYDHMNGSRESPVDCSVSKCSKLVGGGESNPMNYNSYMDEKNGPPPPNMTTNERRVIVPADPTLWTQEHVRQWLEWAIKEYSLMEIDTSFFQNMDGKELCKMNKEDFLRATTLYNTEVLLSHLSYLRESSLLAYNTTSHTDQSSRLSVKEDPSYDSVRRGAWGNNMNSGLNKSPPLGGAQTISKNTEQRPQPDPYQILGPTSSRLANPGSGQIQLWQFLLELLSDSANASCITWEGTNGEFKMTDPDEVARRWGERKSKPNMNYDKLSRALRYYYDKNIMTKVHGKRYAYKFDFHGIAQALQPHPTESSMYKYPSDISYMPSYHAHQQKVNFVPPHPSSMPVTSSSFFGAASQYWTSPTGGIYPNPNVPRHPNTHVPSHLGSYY
Sequence,binding signal [1],binding signal [2],binding signal [3]
TCATAGAGGAACTGCGTACA,2.64 z-score,2.76 z-score,0.797 z-score
GGGGTGAGGAAGTGCCTGGG,3.52 z-score,3.81 z-score,1.88 z-score
GGAAGAGGGAAGTGGAAACC,4.06 z-score,4.47 z-score,2.15 z-score
CAAATGAGGAACTGATGAGG,5.61 z-score,6.48 z-score,1.89 z-score
TGAACAAGGAAGTGAGGCAT,2.88 z-score,3.19 z-score,1.94 z-score
GAAAAGAGGAAGTCATACTG,8.35 z-score,7.5 z-score,4.19 z-score
